Results as given in PubChem BioAssay AID1963576 (National Center for Advancing Translational Sciences (NCATS), 2024).
The whole screen tested about 46,000 compounds, of which about 60 (0.1%) were called active. Another 3% or so got no clear call; they are omitted. Calls come from the whole dose curve; as a rule, active = well fitted inhibition curve with a large enough effect; inconclusive = small, poorly fitted or top-dose-only effect; inactive = no such curve, though single readings can be large or run the other way. The list shows a part of the results.

assay: Primary qHTS assay for Inhibitors of ovarian cancer metastasis using an organotypic tumor microenvironment (TME) model.; note: nearly all actives have a fitted effect of over 65% in size;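 for activity change, negative = inhibition: plate controls were DMSO wells for no effect and tomatine positive control wells for full effect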; conditions: SKOV3ip1-GFP adhesion/invasion on 3D omental model, fluorescence; series mostly up to 45.8 µM; activity change, negative = inhibition: at the top concentration
Method in brief: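 A 3D layer of primary human omental fibroblasts, mesothelial cells, fibronectin and collagen I, grown 48 hr, received SKOV3ip1-GFP cells in serum-free medium plus compounds at 0.36-46 umol/L. After 2 hr RT and 16 hr 37 C, fixed adherent GFP cells were counted; normalized to DMSO and tomatine.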

| Compound | outcome | activity change, negative = inhibition |
| --- | --- | --- |
| COc1ccc(NC(=O)Cn2c(=O)n(Cc3ccccc3OC)c(=O)c3cccnc32)cc1Cl | inactive | – |
| CCc1ccc(CNC(=O)c2cc3n(n2)CCCN(Cc2ccccc2)C3=O)cc1 | – | inactive: -7.55% |
| Cc1ccc(Cn2c(=O)n(CCc3ccc(Cl)cc3)c(=O)c3ccccc32)cc1 | – | inactive: 8.69% |
| O=C(Nc1nc2ccccc2n1CCN1CCOCC1)c1cccc([N+](=O)[O-])c1 | – | inactive: -0.669% |
| COc1ccc(OC)c(NC(=O)C2Cc3ccccc3CN2S(=O)(=O)c2ccc(F)cc2)c1 (centres undefined) | – | inactive: -4.73% |
| CC1=C(C(=O)Nc2ccc(Cl)cc2)C(c2ccccc2F)n2nc(SCc3cccc(Cl)c3)nc2N1 (centres undefined) | – | inactive: 4.92% |
| Cc1sc2ncn(CC(=O)Nc3ccc(C(C)C)cc3)c(=O)c2c1S(=O)(=O)N1CCN(c2ncccn2)CC1 | – | inactive: 9.19% |
| COc1ccc2c(c1)sc1ncc(C(=O)NCc3ccccc3F)c(=O)n12 | inactive | – |
| COc1ccc(S(=O)(=O)Nc2ccc3oc4c(c3c2)CCCC4)cc1 | – | inactive: -21% |
| Cc1cccc(-c2noc(-c3cccnc3NCc3ccc(Cl)cc3)n2)c1 | – | inactive: 1.03% |
| CCCCNC(=O)CSc1nc2n[nH]c(C)c2c(=N)n1-c1cccc(Cl)c1C | inactive | – |
| CC1(C)N=C(SCc2ccccc2Cl)c2ccccc2N1 | – | inactive: -6.77% |
| COc1ccc(CCNC(=O)CCCCn2c(=O)c3ccccc3n(CC(=O)Nc3c(C)cccc3C)c2=O)cc1OC | – | inactive: -13% |
| C#CCn1c(=NC(=O)c2ccc3c(c2)OCCO3)sc2cc(OC)c(OC)cc21 | – | inactive: -3.32% |
| CCOc1ccc(NS(=O)(=O)c2ccc(C(=O)N(C)C)s2)cc1 | inactive | – |
| O=C(c1cccc(Cl)c1)N1c2nc(-c3ccco3)nn2C2(CCCCC2)[C@@H]2CCCC[C@@H]21 | inactive | – |
| Cc1ccccc1C(=O)N1CC(=O)Nc2ccc(Cl)cc2C1c1ccccc1 (centres undefined) | – | inactive: 1.9% |
| O=C(CCSCc1cccc(Cl)c1)N1CCN(c2ccc(Cl)cc2)CC1 | – | inactive: -2.72% |
| COC(=O)c1scc(-c2ccc(C)cc2)c1S(=O)(=O)N1CCN(c2ccccc2)CC1 | inactive | – |
| COc1cccc(NC(=O)CC(=O)Nc2ccc3nc4n(c(=O)c3c2)CCCCC4)c1 | inactive | – |
| Cc1nc2ccc(S(=O)(=O)CCC(=O)Nc3ccc(Cl)cc3)cc2s1 | – | inactive: -12.2% |
| Cc1nn(-c2ccc(N3CCCCC3)nn2)c(C)c1CCC(=O)Nc1ccc(F)cc1F | – | inactive: -5.78% |
| COc1cc(OC)cc(N2C(=O)N(Cc3ccc(C(C)(C)C)cc3)c3ccccc3S2(=O)=O)c1 | inactive | – |
| CCOC(=O)c1c(C)[nH]c(C)c1S(=O)(=O)NCC(=O)Nc1cccc(C#N)c1 | – | inactive: 3.6% |

| Compound | outcome | activity change, negative = inhibition |
| --- | --- | --- |
| COc1ccc(S(=O)(=O)N2CCC(C(=O)Nc3ccccc3)CC2)cc1OC | – | inactive: 8.24% |
| Cc1ccc(Cn2cc(S(=O)(=O)c3cccc(Cl)c3)c(=O)c3cc(F)c(N4CCCCC4)cc32)cc1 | – | inactive: 8.17% |
| Cc1cc(N2CCC(C)CC2)nc2ccc(NC(=O)Cc3c(F)cccc3Cl)cc12 | – | inactive: -4.75% |
| CCOC(=O)N1CCN(C(=O)CN(c2ccccc2F)S(=O)(=O)c2ccc(C)cc2)CC1 | inactive | – |
| Cc1ccc(C)c(CN2C(=O)C(O)(c3c(C)[nH]c4ccccc34)c3ccccc32)c1 (centres undefined) | inactive | – |
| COc1ccc(OC)c(CNC(=O)c2ccc3c(c2)c(C)c(C)n3Cc2ccc(Cl)cc2)c1 | – | inactive: 2.28% |
| O=C(C1CCCN(S(=O)(=O)c2cccc3nsnc23)C1)N1CCN(c2ccccc2)CC1 (centres undefined) | – | inactive: 6.46% |
| CCc1ccc(NC(=O)CN(c2ccc(Cl)cc2)S(=O)(=O)c2ccsc2C(=O)OC)cc1 | – | inactive: 2.63% |
| CCOc1ccc(NC(=O)c2c(NCc3cccc(OC)c3OC)sc3c2CCC3)cc1 | – | inactive: 4% |
| Nc1c(C(=O)Nc2ccccc2Cl)c2ccccn2c1C(=O)c1ccccc1 | inactive | – |
| CCOC(=O)c1noc2nc(C)n(CC(=O)NC(C)CC)c(=O)c12 (centres undefined) | – | inactive: -5.81% |
| Nc1ccccc1NC(=O)c1ccc(CNC(=O)OCc2cccnc2)cc1 | – | inactive: -23.6% |
| O=C(NCc1cccs1)c1ccc2c(c1)N(Cc1cccc(F)c1)C(=O)c1ccccc1S2 | – | inactive: 1.79% |
| Cc1ccc(Cl)cc1NC(=O)CSc1nccn1C | – | inactive: 6.17% |
| COC(=O)c1c(NC(=O)Cc2coc3cc(C)ccc23)sc2c1CCC2 | – | inactive: -0.728% |
| Cc1cc(C)cc(NC(=O)CSc2nc(=O)n(CCN3CCOCC3)c3c2CCC3)c1 | – | inactive: -5.24% |
| Cc1oc(-c2cccc(Cl)c2)nc1CS(=O)(=O)CC(=O)NC(C)CCc1ccccc1 (centres undefined) | – | inactive: -9.23% |
| CCCCN(CC)C(=O)c1nn(C)c2c1CSc1ccccc1-2 | – | inactive: 3.77% |
| CCOc1ccccc1CNC(=O)c1ccc2c(c1)N(Cc1ccc(C)cc1)CCS2 | – | inactive: -17.2% |
| CC(=O)c1cccc(NC(=O)CSc2nc(=O)n(Cc3ccco3)c3c2CCC3)c1 | – | inactive: 4.46% |
| COc1ccc(Cl)cc1NC(=O)C(C)Sc1nc2c(c(=O)[nH]1)CCCC2 (centres undefined) | – | inactive: 3.18% |
| O=C(CCC1N=C2c3ccccc3N=C(SCc3ccc(F)cc3)N2C1=O)NCCc1ccccc1 (centres undefined) | – | inactive: -15.4% |
| Cc1ccccc1CNC(=O)C(C)N(c1ccccc1)S(C)(=O)=O (centres undefined) | inactive | – |
| Cc1ccc(NC(=O)C2CCCN(C(=O)c3cnn(-c4ccc(F)cc4)c3-n3cccc3)C2)c(Cl)c1 (centres undefined) | – | inactive: -1.31% |

| Compound | outcome | activity change, negative = inhibition |
| --- | --- | --- |
| O=C(CSc1ccc(-c2cccs2)nn1)Nc1ccccc1C(F)(F)F | inactive | – |
| COc1ccc(-n2c(-c3ccco3)nc3c(cnn3-c3ccc(Cl)cc3)c2=O)cc1 | inactive | – |
| CC1(C)O[C@H]2[C@@H](O1)[C@@H](C(=O)Nc1ccccc1C(F)(F)F)O[C@@H]1OC(C)(C)O[C@@H]12 | – | inactive: 15% |
| O=C(NCCc1ccccc1Cl)C1CCN(c2nc3ccccc3nc2C(F)(F)F)CC1 | – | inactive: -29.5% |
| CCc1ccccc1NS(=O)(=O)c1ccc2c(c1)CC(=O)N2 | – | inactive: -20.7% |
| CC(=O)Nc1nonc1-c1nnc(SCc2ccccc2F)n1C | – | inactive: -0.164% |
| COc1ccccc1NC(=O)c1c(NCc2ccc(C)o2)sc2c1CCCCC2 | inactive | – |
| CCc1ccc(NC(=O)Cn2c(=O)n(CCC(C)C)c(=O)c3cccnc32)cc1 | inactive | – |
| COc1ccc(-c2cc(C(F)(F)F)n3nc(-c4ccccc4)cc3n2)cc1OC | – | inactive: 9.54% |
| CCCc1nn2c(=O)cc(COC(=O)c3ccccc3NC(=O)COc3ccccc3)nc2s1 | inactive | – |
| CCOC(=O)c1cc(S(=O)(=O)Nc2cc(F)ccc2C)[nH]n1 | inactive | – |
| CCCCSc1nnc2n(-c3ccc(OC)cc3)c(=O)c3c4c(sc3n12)COC(C(C)C)C4 (centres undefined) | – | inactive: -0.0854% |
| CC(=O)c1ccc(N2CCN(c3ncnc4c3c(-c3ccccc3)cn4-c3ccc(Cl)cc3)CC2)cc1 | – | inactive: 14.1% |
| Cc1ccc(/C=C/c2onc(C)c2S(=O)(=O)N2CCC(C(=O)Nc3ccccc3C(F)(F)F)CC2)cc1 | – | inactive: -7.81% |
| COc1ccc2c(c1)c(=O)c(S(=O)(=O)c1ccccc1)cn2CC(=O)Nc1ccc(C)c(Cl)c1 | inactive | – |
| COc1ccc(-n2c(=O)c3c(c4cc(OC)ccc4n3C)n(Cc3cccc(C)c3)c2=O)cc1 | – | inactive: 18.1% |
| Cc1cccc2c1N(Cc1ccccc1OCCC(C)C)C(=O)C2=O | – | inactive: -4.95% |
| CC(=O)c1ccc(NC(=O)c2cc(C)nc3c2c(C)nn3-c2ccc(C)cc2)cc1 | – | inactive: -0.787% |
| COc1cccc(CNC(=O)Cn2nc(-c3ccc(Cl)cc3)ccc2=O)c1 | inactive | – |
| CC1=C(C(=O)Nc2ccc(C)cc2C)C(c2cccs2)n2nc(SCc3cccc(C)c3)nc2N1 (centres undefined) | – | inactive: -4.08% |
| CNC(=O)CSc1cn(CC(=O)N2CCCCCC2)c2ccccc12 | – | inactive: 1.38% |
| CC(C)CC(=O)Nc1nnc(S(=O)(=O)N(C)Cc2ccc(Cl)cc2)s1 | inactive | – |
| CCOC(=O)c1c(C)[nH]c(C)c1S(=O)(=O)N1CCCC(C(=O)NCc2ccc(N(C)C)cc2)C1 (centres undefined) | inactive | – |
| CCC(C(=O)Nc1cccc(-c2nc3cccnc3s2)c1C)c1ccccc1 (centres undefined) | – | inactive: -2.91% |

| Compound | outcome | activity change, negative = inhibition |
| --- | --- | --- |
| COc1ccc(-n2cc(C(=O)NCCc3cc(OC)ccc3OC)c3ccccc3c2=O)cc1 | – | inactive: -1.04% |
| CCOc1ccc(NC(=O)CSc2oc(-c3ccc(F)cc3)nc2S(=O)(=O)c2ccc(C)cc2)cc1 | inactive | – |
| O=C(CCOc1ccccc1)N(Cc1cccnc1)c1nc2ccc(Cl)cc2s1 | – | inactive: -4.39% |
| COc1ccc(OC)c(NC(=O)CN2C(=O)CC(C)Sc3ccccc32)c1 (centres undefined) | – | inactive: 7.28% |
| COc1ccc(CNC(=O)Cn2ccc3cc(S(=O)(=O)N4CCCCC4)ccc32)cc1OC | – | inactive: -8.95% |
| Cc1ccc(-n2c(=O)c3c4c(sc3n(Cc3cc(=O)n5ccccc5n3)c2=O)CCC4)cc1C | – | inactive: 5.82% |
| Cc1nc2nc(NC(=O)c3ccc(C(C)(C)C)cc3)[nH]n2c(=O)c1Cc1ccccc1 | – | inactive: -6.74% |
| O=C(Nc1ccc(Br)cc1F)c1cc(S(=O)(=O)NC2CCCCC2)ccc1F | – | inactive: 4.26% |
| Cc1ccc(CN(Cc2ccco2)C(=O)c2oc3cc(Br)ccc3c2C)cc1 | inactive | – |
| Clc1ccccc1-c1nnc(COc2ccccc2)o1 | – | inactive: 27.1% |
| COc1cc(CN2CCN(S(=O)(=O)c3ccc(NC(C)=O)cc3)CC2)cc(OC)c1OC | – | inactive: -4.8% |
| CC1=C(C(=O)OCC2CCCCC2)C(c2ccc(Cl)cc2)CC(=O)N1 (centres undefined) | inactive | – |
| O=C1N(Cc2ccccc2Cl)c2ccccc2C1(O)c1c[nH]c2ccccc12 (centres undefined) | – | inactive: 8.83% |
| Cc1ccc2oc(-c3ccc(C)c(NC(=O)C(C)(C)Oc4ccc(Cl)cc4)c3)nc2c1 | – | inactive: -29% |
| COc1ccccc1NC(=O)c1oc2ccccc2c1NC(=O)COc1cccc(C)c1 | inactive | – |
| COc1ccc(Cl)cc1NC(=O)N(C)CCc1c(C)nn(C)c1C | – | inactive: -7.39% |
| CSc1ncc(C(=O)Nc2ccc(C)c(Cl)c2)c(-c2ccccc2)n1 | – | inactive: -0.545% |
| CCc1ccc(N(CC)C(=O)Cn2nc(Cc3cccnc3)c3ccccc3c2=O)cc1 | inactive | – |
| CCOC(=O)c1cc(C)n(CC2CCC(C(=O)Nc3ccccc3OC)CC2)c1C (centres undefined) | – | inactive: -3.13% |
| Cc1cccc(Cn2c(=O)n(Cc3ccccc3)c(=O)c3c2c2cc(C)ccc2n3C)c1 | inactive | – |
| CC(=O)c1ccc(NS(=O)(=O)c2c(C)nc3scc(C)n3c2=O)cc1 | – | inactive: 1.59% |
| CCOC(=O)c1sc2ccccc2c1S(=O)(=O)Nc1ccc(C(C)=O)cc1 | inactive | – |
